# Experimental data from the RNAGym collection of RNA variant scans (doi:10.7554/elife.90254).
# The source gives no read counts; variants with many changes may rest on few reads.
# B1: LINE1-mini (parent)
# chain: GGCAGAGCUCAACACAGCGUGGCAAAGUGGCUGUGGCUAGACUGCC
# Variants of: B1
# Test: self-cleavage, relative activity (ratio to wild type); higher = more cleavage; in vitro, sequencing; the parent is a self-cleaving ribozyme
row,Variant,self-cleavage
1,C15U G19U U34G,0.03
2,C15U G17U C18A A25G U28C,0.02
3,C15G G17A U43A,0.15
4,C15G A16G C18U,0.06
5,C15U U20A A26U C31U,0.04
6,C15G G21U G27C,0.03
7,C15A U28C A41C,0.01
8,C15A U28C A41U,0.06
9,C15U C23U G33C G40A,0.03
10,C15G G35C A39U C42A,0.04
11,C15G G19C A24C C42G,0.02
12,C15U C31U U38G,0.03
13,C15G A24U G29A,0.07
14,C15A U28C A39C,0.01
15,C15U G22C A25G A41G,0.17
16,C15A G36A A39C C46U,0.19
17,C15U A16U C42A,0.22
18,C15A G30A G33A U34A,0.01
19,C15A U20A G33C C42A,0.12
20,C15U G17C G30A,0.08
21,C15U G29A G35C,0.01

row,Variant,self-cleavage
1,C15U U20A A26C U32A,0.03
2,C15U G17C G29U,0.1
3,C15U A25G A39G,0.15
4,C15U G40A A41U,0.08
5,C15U C18U U38G,0.03
6,C15U C18U U38C,0.03
7,C15U G17C U28C C31U G40C,0
8,C15U G36C A41G,0.06
9,C15U G21C C23G G33C C37G,0.03
10,C15U A16G U20C G22A,0.5
11,C15G C18U U43A,0.11
12,C15U A24U A41C,0.55
13,C15G U28C G35U,0.02
14,C15U C18U G19U,0.16
15,C15A G29C G35A A39U C45G,0.01
16,C15U C23G G35A,0.07
17,C15U A16U C18U,0.04
18,C15G C18A G19A,0.01
19,C15G G22C U32C,0.02
20,C15G C18U G40U C42A,0.18
21,C15U A24G G29U C37A,0.06

row,Variant,self-cleavage
1,C15U C23U G29C U43G,0.01
2,C15A U32A C46U,0.02
3,C15G G19U U32C C45A,0.01
4,C15A G29A U43C,0.06
5,C15A G40U A41G C45G,0.01
6,C15G A26G C31A G35A C37G,0.01
7,C15U G22C G30C U32C,0.27
8,C15G U20C A26U,0.02
9,C15G G21C A25C,0.02
10,C15G C23A G30U,0.05
11,C15G G21A G40A,0.01
12,C15A G30C C46A,0.03
13,C15A U32A C45G,0.06
14,C15U G30U C31A G35C C45A,0.12
15,C15U G29C G33U C42G,0.04
16,C15G G17A G22A,0.05
17,C15U C31A C42A,0.12
18,C15U G27U G33A G35C,0.34
19,C15U C18U G27U G44A,0.04
20,C15A U38A A39G C42G,0.02
21,C15U G22C U32G,0.02

row,Variant,self-cleavage
1,C15U G27A G30A,0.34
2,C15G A26G G27C A39C,0.02
3,C15A G35C C37G,0.04
4,C15U C18U A24C C46U,0.01
5,C15U A16G U32A,0
6,C15A G30A U32C,0.02
7,C15U G17C U34A G40A,0.14
8,C15U G29U U32G,0.03
9,C15A U38C G40U U43A,0.06
10,C15U G19A C37G C45A,0.05
11,C15A U20A G33A G35A G40U C46A,0
12,C15G G21A U28A C46A,0.04
13,C15G G17U U28C G29C C31A,0.02
14,C15U A16U U34C G35U U38C,0.02
15,C15G U34A G40A,0.01
16,C15U C31A G36C U38G G44U C45U C46U,0.07
17,C15A G29U C42U,0.07
18,C15U C18U G19U U20A C23G C31U U32A G40C,0.06
19,C15A U28G G40U,0.05
20,C15U G36A A39U C42U,0.07
21,C15G G36A C37A C42G,0.04
